In the supplement of paper PMC10037445:
The full ranking holds about 2,900 compounds; the median of “NF-kB SEAP reporter activity, fold change vs agonist alone” is about 0.99, and the highest 2% start at about 2.6. The list shows a part of the results.

Key:
[1] = system: RAW-Dual; assay: NF-kB SEAP reporter activity, fold change vs agonist alone; cytotoxicity flag (confluency mask): not cytotoxic; higher = enhanced NF-kB activity
How it was run: (§1)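 Cytotoxic wells were those whose IncuCyte confluency was below 70% of agonist controls in both mask sets. The cells were RAW-Dual macrophages at 50,000 cells/well in DMEM on 384-well plates, dosed with 50 nL of library stock by pin tool, stimulated with a PRR agonist 1 h later, and kept at 37 °C, 5% CO2 for 20 hours. IRF and NF-κB reporter activity, as fold change over agonist-alone wells, came from supernatant read by QuantiLuc luminescence and QuantiBlue absorbance, respectively.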

[2] = system: RAW-Dual; assay: NF-kB SEAP reporter activity, fold change vs agonist alone; higher = enhanced NF-kB activity
How it was run: as §1

[3] = system: RAW-Dual; assay: NF-kB SEAP reporter activity, fold change vs agonist alone; cytotoxicity flag (confluency mask): cytotoxic (confluency <70% of control); higher = enhanced NF-kB activity
How it was run: as §1

[4] = agonist: ODN 1826 (TLR9) 0.5 ug/mL
[5] = agonist: Pam2CSK4 (TLR2/6) 0.1 ug/mL
[6] = agonist: Pam3CSK4 (TLR2/1) 0.1 ug/mL
[7] = library stock concentration (final ~1000-fold dilution): 10 mM, cytotoxicity flag (confluency mask): not cytotoxic, agonist: Imiquimod (TLR7) […]
[8] = library stock concentration (final ~1000-fold dilution): 10 mM, cytotoxicity flag (confluency mask): not cytotoxic, agonist: MPLA (TLR4) […]

CC(C)NCC(O)COc1cccc2[nH]ccc12 (stereo not given) (library stock concentration (final ~1000-fold dilution): 10 mM)
NF-kB SEAP reporter activity ([1]; agonist: LPS (TLR4) 0.1 ug/mL): 1.45 | NF-kB SEAP reporter activity [1, 4]: 1.3 | NF-kB SEAP reporter activity [1, 5]: 1.33 | NF-kB SEAP reporter activity [1, 6]: 1.21

CC(C)NCC(O)COc1cccc2[nH]ccc12 (stereo not given)
NF-kB SEAP reporter activity [2, 7]: 1.21 | NF-kB SEAP reporter activity [2, 8]: 1.14

Nc1ccn(CC(CO)OCP(=O)(O)O)c(=O)n1 (stereo not given) (library stock concentration (final ~1000-fold dilution): 10 mM water)
NF-kB SEAP reporter activity ([1]; agonist: LPS (TLR4) 0.1 ug/mL): 1.2 | NF-kB SEAP reporter activity [1, 4]: 1.23 | NF-kB SEAP reporter activity [1, 5]: 1.32 | NF-kB SEAP reporter activity [1, 6]: 1.29

Nc1ccn(CC(CO)OCP(=O)(O)O)c(=O)n1 (stereo not given)
NF-kB SEAP reporter activity ([2]; library stock concentration (final ~1000-fold dilution): 10 mM water, cytotoxicity flag (confluency mask): not cytotoxic, agonist: Imiquimod (TLR7) […]): 0.956 | NF-kB SEAP reporter activity ([2]; library stock concentration (final ~1000-fold dilution): 10 mM water, cytotoxicity flag (confluency mask): not cytotoxic, agonist: MPLA (TLR4) […]): 1.04

CC1COC2=C1C(=O)C(=O)c1c2ccc2c1CCCC2(C)C (stereo not given)
NF-kB SEAP reporter activity [2, 7]: 0.935 | NF-kB SEAP reporter activity [2, 8]: 0.895

CC1COC2=C1C(=O)C(=O)c1c2ccc2c1CCCC2(C)C (stereo not given) (library stock concentration (final ~1000-fold dilution): 10 mM)
NF-kB SEAP reporter activity ([1]; agonist: LPS (TLR4) 0.1 ug/mL): 0.845 | NF-kB SEAP reporter activity [1, 4]: 0.682 | NF-kB SEAP reporter activity [1, 5]: 1.06 | NF-kB SEAP reporter activity [1, 6]: 0.896

CC/C(=C(\c1ccc(O)cc1)c1ccc(OCCNC)cc1)c1ccccc1.Cl
NF-kB SEAP reporter activity ([2]; library stock concentration (final ~1000-fold dilution): 10 mM, cytotoxicity flag (confluency mask): cytotoxic (confluency <70% of control), agonist: Imiquimod (TLR7) […]): 0.387 | NF-kB SEAP reporter activity ([2]; library stock concentration (final ~1000-fold dilution): 10 mM, cytotoxicity flag (confluency mask): cytotoxic (confluency <70% of control), agonist: MPLA (TLR4) […]): 0.632

CC/C(=C(\c1ccc(O)cc1)c1ccc(OCCNC)cc1)c1ccccc1.Cl (library stock concentration (final ~1000-fold dilution): 10 mM)
NF-kB SEAP reporter activity ([3]; agonist: LPS (TLR4) 0.1 ug/mL): 0.354 | NF-kB SEAP reporter activity [3, 4]: 0.211 | NF-kB SEAP reporter activity [3, 5]: 0.157 | NF-kB SEAP reporter activity [3, 6]: 0.135

COc1cc2nccc(Oc3ccc(NC(=O)c4cn(C(C)C)c(=O)n(-c5ccc(F)cc5)c4=O)cc3F)c2cc1OC
NF-kB SEAP reporter activity [2, 7]: 0.658 | NF-kB SEAP reporter activity [2, 8]: 0.63

COc1cc2nccc(Oc3ccc(NC(=O)c4cn(C(C)C)c(=O)n(-c5ccc(F)cc5)c4=O)cc3F)c2cc1OC (library stock concentration (final ~1000-fold dilution): 10 mM)
NF-kB SEAP reporter activity ([1]; agonist: LPS (TLR4) 0.1 ug/mL): 0.492 | NF-kB SEAP reporter activity [1, 4]: 0.596 | NF-kB SEAP reporter activity [1, 5]: 0.324 | NF-kB SEAP reporter activity [1, 6]: 0.402

OCC1OC(O)CC(O)C1O (stereo not given) (library stock concentration (final ~1000-fold dilution): 10 mM)
NF-kB SEAP reporter activity ([1]; agonist: LPS (TLR4) 0.1 ug/mL): 1.33 | NF-kB SEAP reporter activity [1, 4]: 1.1 | NF-kB SEAP reporter activity [1, 5]: 1.4 | NF-kB SEAP reporter activity [1, 6]: 1.04

OCC1OC(O)CC(O)C1O (stereo not given)
NF-kB SEAP reporter activity [2, 8]: 1.07
